# Results: the supplement of paper PMC8728848
# Some of the results follow.
# B1: HPAIIITrx (Helix pomatia), Q1KM18 (protein)
# chain: MLFVTIISLGLLAIVHGQCALKTIAFSAAIDREQTFDANQVVIYDIVITNHGNAYDNSTGLFTAPVDGMYSFQLNLLTIKEKEGWLELVHNGQLKVSVYAKQDSTYDSSSNSVIIKMKEGDRVNVRAHKKSGLFGRDDELYNTFSGHFLSGL
# Tests used:
# Assay in all cases: glycan array binding signal (z-score within array); higher = stronger binding
# Conditions in all cases: glycan notation: IUPAC condensed, linker removed
# [1] = target: Gal(b1-4)GlcNAc(b1-2)Man(a1-6)[Man(a1-3)]Man(b1-4)GlcNAc(b1-4)GlcNAc
# Outline: (§1)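 The binding signal is a Z-score computed within each array. Data were drawn from 3228 arrays in the Consortium for Functional Glycomics database, restricted to those with a known protein sequence. Scores were averaged over arrays of the same protein sequence at different concentrations or buffers, and over linkers, and negative values can be taken as non-binding.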
# [2] = target: Gal(b1-4)GlcNAc(b1-2)[Gal(b1-4)GlcNAc(b1-4)]Man(a1-3)[Gal(b1-4)GlcNAc(b1-2)Man(a1-6)]Man(b1-4)GlcNAc(b1-4)GlcNAc
# Outline: as §1
# [3] = target: Gal(b1-4)GlcNAc(b1-2)[Gal(b1-4)GlcNAc(b1-4)]Man(a1-3)[Gal(b1-4)GlcNAc(b1-2)[Gal(b1-4)GlcNAc(b1-6)]Man(a1-6)]Man(b1-4)GlcNAc(b1-4)GlcNAc
# Outline: as §1
# [4] = target: Gal(b1-4)GlcNAc(b1-2)[Gal(b1-4)GlcNAc(b1-4)]Man(a1-3)[GlcNAc(b1-4)][Gal(b1-4)GlcNAc(b1-2)Man(a1-6)]Man(b1-4)GlcNAc(b1-4)GlcNAc
# Outline: as §1
# [5] = target: Gal(b1-4)GlcNAc(b1-2)[Gal(b1-4)GlcNAc(b1-4)]Man(a1-3)[GlcNAc(b1-4)][Gal(b1-4)GlcNAc(b1-2)[Gal(b1-4)GlcNAc(b1-6)]Man(a1-6)]Man(b1-4)GlcNAc(b1-4)GlcNAc
# Outline: as §1
# [6] = target: Gal(b1-4)GlcNAc(b1-2)[Gal(b1-4)GlcNAc(b1-6)]Man(a1-6)[Gal(b1-4)GlcNAc(b1-2)Man(a1-3)]Man(b1-4)GlcNAc(b1-4)GlcNAc
# Outline: as §1
# [7] = target: Gal(b1-4)GlcNAc(b1-2)[Gal(b1-4)GlcNAc(b1-6)]Man(a1-6)[Gal(b1-4)GlcNAc(b1-2)Man(a1-3)]Man(b1-4)GlcNAc(b1-4)[Fuc(a1-6)]GlcNAc
# Outline: as §1
# [8] = target: Gal(b1-4)GlcNAc(b1-2)[Gal(b1-4)GlcNAc(b1-6)]Man(a1-6)[GlcNAc(b1-4)][Gal(b1-4)GlcNAc(b1-2)Man(a1-3)]Man(b1-4)GlcNAc(b1-4)GlcNAc
# Outline: as §1
# [9] = target: Gal(b1-4)GlcNAc(b1-2)[Gal(b1-4)GlcNAc(b1-6)]Man(a1-6)[GlcNAc(b1-4)][Gal(b1-4)GlcNAc(b1-2)[Gal(b1-4)GlcNAc(b1-4)]Man(a1-3)]Man(b1-4)GlcNAc(b1-4)[Fuc(a1-6)]GlcNAc
# Outline: as §1
# [10] = target: Gal(b1-4)GlcNAc(b1-3)Gal(b1-3)GalNAc
# Outline: as §1
# [11] = target: Gal(b1-4)GlcNAc(b1-3)Gal(b1-3)GlcNAc
# Outline: as §1
# [12] = target: Gal(b1-4)GlcNAc(b1-3)Gal(b1-4)Glc
# Outline: as §1
# [13] = target: Gal(b1-4)GlcNAc(b1-3)Gal(b1-4)GlcNAc
# Outline: as §1
# [14] = target: Gal(b1-4)GlcNAc(b1-3)Gal(b1-4)GlcNAc(b1-2)Man(a1-3)[Gal(b1-4)GlcNAc(b1-3)Gal(b1-4)GlcNAc(b1-2)Man(a1-6)]Man(b1-4)GlcNAc(b1-4)GlcNAc
# Outline: as §1
# [15] = target: Gal(b1-4)GlcNAc(b1-3)Gal(b1-4)GlcNAc(b1-2)Man(a1-3)[Gal(b1-4)GlcNAc(b1-3)Gal(b1-4)GlcNAc(b1-2)Man(a1-6)]Man(b1-4)GlcNAc(b1-4)[Fuc(a1-6)]GlcNAc
# Outline: as §1
# [16] = target: Gal(b1-4)GlcNAc(b1-3)Gal(b1-4)GlcNAc(b1-2)[Gal(b1-4)GlcNAc(b1-3)Gal(b1-4)GlcNAc(b1-6)]Man(a1-6)[Gal(b1-4)GlcNAc(b1-3)Gal(b1-4)GlcNAc(b1-2)Man(a1-3)]Man(b1-4)GlcNAc(b1-4)GlcNAc
# Outline: as §1
# [17] = target: Gal(b1-4)GlcNAc(b1-3)Gal(b1-4)GlcNAc(b1-2)[Gal(b1-4)GlcNAc(b1-3)Gal(b1-4)GlcNAc(b1-6)]Man(a1-6)[Gal(b1-4)GlcNAc(b1-3)Gal(b1-4)GlcNAc(b1-2)Man(a1-3)]Man(b1-4)GlcNAc(b1-4)[Fuc(a1-6)]GlcNAc
# Outline: as §1
# [18] = target: Gal(b1-4)GlcNAc(b1-3)Gal(b1-4)GlcNAc(b1-3)Gal(b1-4)GlcNAc
# Outline: as §1
# [19] = target: Gal(b1-4)GlcNAc(b1-3)Gal(b1-4)GlcNAc(b1-3)Gal(b1-4)GlcNAc(b1-2)Man(a1-3)[Gal(b1-4)GlcNAc(b1-3)Gal(b1-4)GlcNAc(b1-3)Gal(b1-4)GlcNAc(b1-2)Man(a1-6)]Man(b1-4)GlcNAc(b1-4)GlcNAc
# Outline: as §1
# [20] = target: Gal(b1-4)GlcNAc(b1-3)Gal(b1-4)GlcNAc(b1-3)Gal(b1-4)GlcNAc(b1-2)Man(a1-3)[Gal(b1-4)GlcNAc(b1-3)Gal(b1-4)GlcNAc(b1-3)Gal(b1-4)GlcNAc(b1-2)Man(a1-6)]Man(b1-4)GlcNAc(b1-4)[Fuc(a1-6)]GlcNAc
# Outline: as §1
# [21] = target: Gal(b1-4)GlcNAc(b1-3)Gal(b1-4)GlcNAc(b1-3)Gal(b1-4)GlcNAc(b1-2)[Gal(b1-4)GlcNAc(b1-3)Gal(b1-4)GlcNAc(b1-3)Gal(b1-4)GlcNAc(b1-6)]Man(a1-6)[Gal(b1-4)GlcNAc(b1-3)Gal(b1-4)GlcNAc(b1-3)Gal(b1-4)GlcNAc(b1-2)Man(a1-3)]Man(b1-4)GlcNAc(b1-4)[Fuc(a1-6)]GlcNAc
# Outline: as §1
# [22] = target: Gal(b1-4)GlcNAc(b1-3)Gal(b1-4)GlcNAc(b1-3)Gal(b1-4)GlcNAc(b1-3)Gal(b1-4)GlcNAc(b1-2)Man(a1-3)[Gal(b1-4)GlcNAc(b1-3)Gal(b1-4)GlcNAc(b1-3)Gal(b1-4)GlcNAc(b1-3)Gal(b1-4)GlcNAc(b1-2)Man(a1-6)]Man(b1-4)GlcNAc(b1-4)GlcNAc
# Outline: as §1
binder,measurement,setting,value
B1,glycan array binding signal (z-score),[1],-0.027
same,glycan array binding signal (z-score),[2],-0.238
same,glycan array binding signal (z-score),[3],-0.365
same,glycan array binding signal (z-score),[4],-0.303
same,glycan array binding signal (z-score),[5],-0.201
same,glycan array binding signal (z-score),[6],-0.212
same,glycan array binding signal (z-score),[7],-0.389
same,glycan array binding signal (z-score),[8],-0.228
same,glycan array binding signal (z-score),[9],-0.416
same,glycan array binding signal (z-score),[10],-0.299
same,glycan array binding signal (z-score),[11],-0.382
same,glycan array binding signal (z-score),[12],-0.207
same,glycan array binding signal (z-score),[13],-0.39
same,glycan array binding signal (z-score),[14],1.41
same,glycan array binding signal (z-score),[15],-0.221
same,glycan array binding signal (z-score),[16],0.804
same,glycan array binding signal (z-score),[17],-0.279
same,glycan array binding signal (z-score),[18],-0.284
same,glycan array binding signal (z-score),[19],0.817
same,glycan array binding signal (z-score),[20],-0.226
same,glycan array binding signal (z-score),[21],-0.28
same,glycan array binding signal (z-score),[22],-0.372
